From patent publication US20100311683A1, “CYTIDINE ANALOGS FOR TREATMENT OF MYELODYSPLASTIC SYNDROMES” (priority 2007, published 2010)
Read-outs that look alike come from different tables or passages of the source.

Legend:
[1] = system: patients with higher risk MDS; assay: AZA-001 pooled subgroup analysis by Western EU country; assay type: in vivo, human
[2] = system: patients with higher risk MDS
[3] = system: patients with higher risk MDS; remark: listed apart in the source
[4] = system: patients with higher risk MDS; assay: Phase III AZA-001 trial: azacitidine vs conventional care regimens (overall survival, AML transformation, IWG 2000 response, transfusion independence, infections, safety); conditions: in vivo
[5] = pre-selection LDara-C, AZA N=45 / LDara-C N=49
[6] = pre-selection LDara-C, safety population AZA N=45 / LDara-C N=44
[7] = safety population: AZA N=175, LDAC N=44, Std Chemo N=19
[8] = patients pre-selected for LDAC: AZA n=45, LDAC n=49

SMILES: Nc1ccn([C@@H]2O[C@H](CO)[C@@H](O)[C@@H]2O)c(=O)n1 [LDara-C, cytosine 1-β-D-arabinofuranoside]
- HR OS, pooled LDAC group vs pooled BSC group ([1]; France/UK n=36 vs Germany, Italy, Spain n=69): 0.95
- OS ([1]; pooled LDAC group, France/UK, n=36): 16.9 months
- deaths reported during treatment and follow-up ([2]; by treatment group): 59%
- discontinuation / early withdrawal due to blood cytopenias ([2]; by treatment group): 4.5%
- Anemia, baseline Grade 0-2 shifting to Grade 3-4 during treatment ([2]; pre-selection LDara-C): (76) %
- HI-E Major rate ([2]; pre-selection LDara-C): (9.8) %
- HI-N Major rate ([2]; pre-selection LDara-C): (10.7) %
- HI-P Major rate ([2]; pre-selection LDara-C): (19.4) %
- IWG Any hematologic improvement rate ([2]; pre-selection LDara-C): (25.0) %
- Neutropenia, baseline Grade 0-2 shifting to Grade 3-4 during treatment ([2]; pre-selection LDara-C): (79) %
- Thrombocytopenia, baseline Grade 0-2 shifting to Grade 3-4 during treatment ([2]; pre-selection LDara-C): (97) %
- rate of infections requiring intravenous antimicrobials ([2]; pre-selection LDara-C): 1.00 per patient year
- Complete Remission (CR) rate [2, 5]: (8.2) %
- Kaplan-Meier median overall survival [2, 5]: 15.3 months
- Partial Remission (PR) rate [2, 5]: (4.1) %
- Stable Disease (SD) rate [2, 5]: (36.7) %
- Deaths during first 3 cycles of treatment ([2]; pre-selection LDara-C, ITT): (14) %
- Deaths, overall ([2]; pre-selection LDara-C, ITT, AZA N=45 / LDara-C N=49): (63) %
- Grade 3-4 Anemia [2, 6]: (77) %
- Grade 3-4 Neutropenia [2, 6]: (89) %
- Grade 3-4 Thrombocytopenia [2, 6]: (96) %
- Anemia, baseline Grade 0-2 shifting to Grade 3-4 during treatment ([2]; safety population): 79%
- Neutropenia, baseline Grade 0-2 shifting to Grade 3-4 during treatment ([2]; safety population): 79%
- Thrombocytopenia, baseline Grade 0-2 shifting to Grade 3-4 during treatment ([2]; safety population): 97%
- Grade 3-4 Anemia [2, 7]: 76%
- Grade 3-4 Neutropenia [2, 7]: 88%
- Grade 3-4 Thrombocytopenia [2, 7]: 98%
- CR+PR rate ([3]; patients pre-selected for LDAC): 12.2%
- HI (major + minor) ([3]; patients pre-selected for LDAC): 25.0%
- deaths during study ([3]; patients pre-selected for LDAC): 59%
- transfusion independence in baseline-dependent patients ([3]; patients pre-selected for LDAC): 13%
- median OS [3, 8]: 15.3 months
- rate of early discontinuation [3, 8]: 67%
- deaths considered related to treatment during the first 3 cycles [4]: 1 patients
